# Source: PubChem BioAssay (NCATS)
# Inconclusive results, whose numbers are uncertain, are shown with a selection of clear calls. Where the call is inconclusive, the potency comes from a doubtful curve fit. Activity calls are given as the source filed them. The call rests on the fitted dose curve; in most records, active means well fitted cell-killing curve with a large enough effect; inconclusive means small, poorly fitted or top-dose-only effect; inactive means flat fitted curve, though single readings scatter. Peptide text beside a SMILES is read from it.
# Assay: OV-SAHO Cancer Cell Toxicity qHTS against the NCATS CANVASS Library (AID 1347348); further: nearly all actives have a fitted effect of over 55% in size
# Conditions: OV-SAHO viability, CellTiter-Glo luminescence, 72 h; activity change, negative = cytotoxicity: at 38.3 µM (top of the series)
# Description: Natural products and their derivatives continue to be wellsprings of nascent therapeutic potential. However, many laboratories have limited resources for biological evaluation, leaving their previously isolated or synthesized compounds largely or completely untested. To address this issue, the Canvass library of natural products was assembled (https://tripod.nih.gov/canvass), in collaboration with academic and industry researchers, for quantitative high-throughput screening (qHTS) across a diverse set of cell-based and biochemical assays. The pure (>85% purity by liquid chromatography/mass spectrometry [LC/MS]) Canvass library of 346 natural products were submitted by 45 academic laboratories and companies around the world. We collected pure natural products to circumvent deconvolution and structure elucidation due to time and resource limitations. The library was formatted into 1536-well plates and evaluated in 50 qHTS (in an 11-pnt concentration series) bioassays with broad scope of disease-relevant mechanisms. The resulting data set from 50 different assays was then systematically analyzed to identify overall trends and specific natural products with interesting biological activities. Reported herein are the results of each individual qHTS and their corresponding assay protocol. National Center for Advancing Translational Sciences (NCATS), Rockville, MD National Institute of Health (NIH), Bethesda, Maryland
# Cancer Cell Toxicity protocol for cell lines COV-362, OV-KATE, OV-SAHO, UWB1.289, UWB1.289-WTBRCA1, HEK-293, HPAF-II, Panc-1005, SW1088, or U-118MG. 1. In a 1536 well, white solid bottom tissue culture plates (Corning 7494), corresponding cells (COV-362, OV-KATE, OV-SAHO, UWB1.289, UWB1.289-WTBRCA1, HEK-293, HPAF-II, Panc-1005, SW1088, or U-118MG) were dispensed in each well at a final concentration of 1000 cells / well (6uL volume) using the Multidrop Combi (Thermo Fisher Scientific) dispenser. 2. The plates were incubated for 4 hours at 37 degrees C/5% CO2/95% Rh. 3. Compounds were pin transferred (~23nL volume) via Wako Pin-tool (Wako Automation, Richmond VA) equipped with a 1536 pin head. The assay plates were treated with compounds in an 11-pnt concentration series with a final concentration range of […] to 85uM. 4. Bortezomib was used as a single dose control (0.5mM column 4, rows 1 - 32) at a final concentration of 1.9uM and as a 16pnt titration (1mM; 1:2 dilution; 16-points; n = 2; column 3, rows 1 - 32) with final concentration range of 0.1nM - 3.8uM. 5. The assay plates were incubated for 72 hours at 37 degrees C/5% CO2/95% Rh. 6. 3uL CellTiter-Glo detection reagent was then added to the plates (columns 2 - 48, rows 1 - 32) and incubated at room temperature for additional 15min. 7. Luminescence signal was acquired via the ViewLux plate reader (PerkinElmer) using a clear filter, 2 second exposure and 2x binning settings.
# On the % scale 0 is the no-effect control and ±100 the full control effect; potency means the concentration at half of the fitted maximal effect; tags describe the fitted curve by direction and shape.
Compound,Potency,"activity change, negative = cytotoxicity"
C=C(C)C(=O)O[C@H]1C[C@H](C)[C@@H](OC(C)=O)CC[C@@]2(C)O[C@@H]2[C@H]2OC(=O)C(COC(C)=O)=C12,active: 2.36 µM,
C=CC(CCCCC)C1C(=O)NC(=O)C1C(=O)C1C(/C=C/C)C=CC2CC(C(=O)O)CC(C)C21 (stereo not given),"inconclusive: 16.7 µM [cytotoxic, partial curve]",
C=C[C@]1(C)CC[C@@H]([C@H](C)C(=O)/C=C/C(C)(C)O)O1,"inconclusive: 16.7 µM [cytotoxic, partial curve]",
CC1(C)CC[C@]2(CO)CC[C@]3(C)C(=CCC4[C@@]5(C)CC[C@H](O)C(C)(C)C5CC[C@]43C)C2C1 (stereo not given in full),,inactive: 0.521%
C/C1=C/[C@@H](C)[C@H](O)[C@@H](O)/C=C/CC/C=C/C(=O)O[C@@H]1[C@H](C)C(=O)/C=C/CC1CC(=O)NC(=O)C1,"inconclusive: 16.7 µM [cytotoxic, partial curve]",
CC1=C2CC[C@]3(C)[C@H](CC=C4[C@@H]5CC(C)(C)CC[C@@H]5C(=O)[C@H](O)[C@]43C)[C@@]2(C)C=C(O)C1=O,"inconclusive: 29.8 µM [cytotoxic, single point]",
CO[C@H]1/C=C/CCCCC(=O)O[C@@H](/C(C)=C/[C@H](C)C(=O)C[C@H](O)CC2CC(=O)NC(=O)C2)[C@@H](C)C1,"inconclusive: 8.38 µM [cytotoxic, partial curve]",
"CC[C@@H](C)[C@H]1NC(=O)C(CC(C)C)NC(=O)[C@@H](CC(C)C)NC(=O)[C@H](Cc2c[nH]c3ccccc23)NC(=O)CNC(=O)[C@@H](CC(N)=O)NC1=O (stereo partly drawn) (HELM PEPTIDE1{G.W.[dL].[CC(C)CC(N[*:1])C(=O)[*:2]].[dI].[dN]}$PEPTIDE1,PEPTIDE1,1:R1-6:R2$$$V2.0)","inconclusive: 14.9 µM [cytotoxic, partial curve, poor fit]",
CC[C@H]1[C@@H](C)[C@@H](c2cc(OC)c(OC)cc2OC)[C@H](C)[C@@H](c2cc(OC)c(OC)cc2OC)[C@@]12C=C(OC)C(=O)C=C2OC,"inconclusive: 21.1 µM [cytotoxic, single point]",
C=C1C(=O)O[C@H]2[C@H]1CCC(C)=C1CC[C@@](C)(O)[C@@H]12,active: 18.8 µM,
C[C@@H]1CC[C@]2(C(=O)O)CC[C@]3(C)C(=C2[C@H]1C)CC[C@@H]1[C@@]2(C)CC[C@H](O)C(C)(C)[C@@H]2CC[C@]13C,active: 11.8 µM,
CC[C@@H]1[C@H](C)[C@H](c2cc(OC)c(OC)cc2OC)[C@@H](C)[C@H](c2cc(OC)c(OC)cc2OC)[C@]12C=C(OC)C(=O)C=C2OC,"inconclusive: 29.8 µM [cytotoxic, single point]",
CN1CC[C@]23c4ccccc4N[C@H]1[C@]21CCN(C)[C@H]3Nc2ccccc21,,inactive: -2.08%
C=C1C(=O)O[C@H]2C[C@H](C)[C@@H]3CC(=O)C(C)=C3[C@H](O)[C@H]12,active: 14.9 µM,
COc1cc(O)c(C(=O)[C@@H]2[C@H](CC=C(C)C)C(C)=CC[C@H]2c2ccccc2)c(O)c1,active: 23.6 µM,
CCC(=O)CCCCC[C@@H]1NC(=O)[C@H]2CCCCN2C(=O)[C@H](C(C)C)NC(=O)[C@H](Cc2cn(OC)c3ccccc23)NC1=O,active: 14.9 µM,
CN1CCc2cc3c(c4c2C1(C)C(=O)c1cc(O)ccc1-4)OCO3 (stereo not given),"inconclusive: 13.3 µM [cytotoxic, partial curve, poor fit]",
C=C1CC[C@@H](O[C@H]2C[C@@](O)([C@H](C)NC(=O)c3[nH]c(C)c(Cl)c3Cl)[C@H](O)[C@@H](C)O2)[C@@H]2C=C[C@H](C)C(/C(O)=C3/C(=O)[C@H](C(C)C)N([C@@H]4O[C@H](C)[C@H](OC(N)=O)[C@H](OC(C)=O)[C@@H]4OC)C3=O)[C@@H]12 (stereo not given in full),"inconclusive: 14.9 µM [cytotoxic, partial curve]",
CCC(=O)N[C@@H](C[C@H](C)C(Cl)(Cl)Cl)C(=O)N1C(=O)C=C(OC)[C@@H]1C[C@H](C)CCl,"inconclusive: 21.1 µM [cytotoxic, single point]",
Cc1cc(C)c(O)c(C(=O)CC2CC(=O)NC(=O)C2)c1,"inconclusive: 5.29 µM [cytotoxic, partial curve]",

Compound,Potency,"activity change, negative = cytotoxicity"
CCCCCCCCCCCCCCC[C@H](O)C[C@@H](O)C[C@@H](O)C[C@@H](O)C[C@@H](O)C[C@H]1CC=CC(=O)O1,active: 1.49 µM,
C/C=C/C1C=CC2CC(C)CC(C)C2C1C(=O)CC(=O)NC(CO)C/C=C/CCCCC (stereo not given),"inconclusive: 26.5 µM [cytotoxic, single point]",
C=C[C@@]1(C)CC[C@@H]([C@H](C)C(=O)/C=C/C(C)(C)O)O1,"inconclusive: 21.1 µM [cytotoxic, single point]",
CCC[C@@H](C)/C=C(\C)[C@H](O)[C@H](C)/C=C/CC[C@@H](O)[C@H](C)[C@H](O)[C@H](C)[C@H](O)[C@H](C)[C@H]1O[C@H]([C@H](C)C(=O)O)CC[C@@H]1C,active: 3.34 µM,
CO[C@H]1[C@@H](OC(=O)/C(C)=C\[C@@H]2O[C@@H]2[C@H]2O[C@H]2C)[C@H](O)[C@H](OCC23C[C@@H]4[C@H](C)CC[C@H]4C4(C=O)CC2C=C(C(C)C)C34C(=O)O)O[C@@H]1C (stereo not given in full),,inactive: -8.44%
CC1=CC[C@@]2(C[C@@H]1O)[C@@H](C(=O)O)CC[C@H]2C(C)C,,inactive: -3.95%
C[C@]12CC[C@]3(C1)[C@H](CC2=O)CC(OC(=O)c1ccccc1)[C@H]1[C@@](CO)(C(=O)O)CCC[C@@]13C (stereo not given in full),,inactive: 0.789%
C=C1C[C@]23C=CC(=O)[C@@](C)(CCCC(C)C(=O)N[C@@H](CO)C(=O)O)[C@@H]2C[C@@H]1CC3 (stereo not given in full),,inactive: 3.92%
COC(=O)[C@]1([C@H]2CCC(=O)O2)CC(=O)c2c(O)cc(C)cc2O1,,inactive: 0.39%
C/C(=C\CC/C(C)=C/CC[C@]1(C)CCc2cc(O)cc(C)c2O1)CC/C=C(\C)C(=O)O,,inactive: -0.254%
COC(=O)c1cc2cc3c(c(O)c2c(=O)o1)OC1(CC3)CC2=C(O1)C(=O)c1c(O)c(OC)cc(OC)c1C2=O (stereo not given),"inconclusive: 21.1 µM [cytotoxic, single point]",
C/C=C/C(=O)C1(O)CC2CC(C(=O)O)CC(C)C2C1C1=C2C(=O)NC(=O)C2=C(CCCCC)C(C)O1 (stereo not given),"inconclusive: 14.9 µM [cytotoxic, partial curve]",
CN1C(=O)C2C(N=CN2C)N(C)C1=O (stereo not given),,inactive: -8.08%
CCCc1c2c([nH]c(=O)c1C)C(=O)c1[nH]c(=O)c(C)c(CCC)c1C2=O,active: 11.8 µM,
Cc1occ2c1C(=O)c1c(cc(O)c(O)c1O)C2=O,"inconclusive: 23.6 µM [cytotoxic, single point]",
O=C(OC[C@H]1O[C@@H](OC(=O)c2cc(O)c(O)c(O)c2)[C@H](OC(=O)c2cc(O)c(O)c(O)c2)[C@@H](OC(=O)c2cc(O)c(O)c(O)c2)[C@@H]1OC(=O)c1cc(O)c(O)c(O)c1)c1cc(O)c(O)c(O)c1,"inconclusive: 21.1 µM [cytotoxic, single point]",
C/C(=C\[C@H](C)C(=O)C[C@H](O)CC1CC(=O)NC(=O)C1)[C@@H]1OC(=O)CCCC/C=C/C[C@@H](O)[C@@H]1C,"inconclusive: 3.75 µM [cytotoxic, full curve]",
C=C[C@]1(C)CC[C@@H]([C@H](C)C(=O)OCC)O1,,inactive: 4.73% [at 22.9 µM]
CC(C)[C@]12CC[C@@]3(C)[C@H](C)CC[C@H](O)[C@@]3(CC1)c1cc3c(cc12)[nH]c1ccccc13,"inconclusive: 26.5 µM [cytotoxic, partial curve, poor fit]",
CC1(C)CC[C@]2(C(=O)O)CC[C@]3(C)C(=CC[C@@H]4[C@@]5(C)C[C@@H](O)[C@H](O)C(C)(C)[C@@H]5CC[C@]43C)[C@@H]2C1,"inconclusive: 26.5 µM [cytotoxic, partial curve]",
